# From patent US20100080794A1 (published 2010)
# B1: AILIM-IgFc chimeric molecule Gln223Cys (Fc fusion)
# chain: EINGSANYEMFIFHNGGVQILCKYPDIVQQFKMQLLKGGQILCDLTKTKGSGNTVSIKSLKFCHSQLSNNSVSFFLYNLDHSHANYYFCNLSIFDPPPFKVTLTGGYLHIYESQLCCQLKDPE[not shown - human IgG1 Fc with Q295C (EU numbers)]
# notes: also called AILIM-IgFc Cys223; AILIM/ICOS-IgFc Cys mutant
# Target: T1, CD16a (UniProt P08637)
# T1 construct: whole, on cells; also called CD16a-expressing CHO-K1; CHO-K1 highly expressing CD16
# Test: flow cytometry on CD16a-expressing CHO-K1 cells, biotin-labeled anti-AILIM antibody and PE-streptavidin
# T1 sequence (P08637 17-254 limits assumed): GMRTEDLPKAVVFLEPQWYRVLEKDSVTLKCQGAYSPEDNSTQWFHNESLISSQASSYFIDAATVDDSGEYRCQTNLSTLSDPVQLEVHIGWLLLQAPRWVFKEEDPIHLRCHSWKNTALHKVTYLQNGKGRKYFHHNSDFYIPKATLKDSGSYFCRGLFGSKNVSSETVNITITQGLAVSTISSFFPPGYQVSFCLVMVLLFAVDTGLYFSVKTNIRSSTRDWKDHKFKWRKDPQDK
binder,measurement,value
B1,fold increased reactivity against Wt,~2 fold
